# From the supplement of paper PMC8728848
# Some of the results follow.
# B1: 7WC (Trifolium repens) (protein)
# chain: MGTITSYAVVFDAGSTGSRVHVYHFDQNLDLLHIGKDVEFYNKIQPGLSAYADNPEQAAKSLIPLLEQAENVVPEDFHSKTPIRLGATAGLRLLDGDASERILQAVRDMLNNKSTFNVQPDAVSIIDGTQEGSYLWVTINYVLGNLGKRFTNTVGVIDLGGGSVQMAYAVSKKTARNAPKVTDGEDPYIKKIVLKGKPYDLYVHSYLHFGREASRAEILKVTHGSASPCILAGFDGIYTYSGEEFKASAPTSGANFDKCKKIIQKALKLDYPCPYQNCTFGGIWNGGGGSGQKKLFAASSFFYLPQDVGMVDPNKSNLKLRPVDLENKAKIVCTLNVEDVKSAYPLLEKFNIVPYACMDLIYQYELLVDGFGLDPLQEITAGEKIEYQEALVDAAWALGNAVEAVLLLPKFERLMYFVVEHHHHHH
# Columns and labels:
# Assay in all cases: glycan array binding signal (z-score within array); higher = stronger binding
# Conditions in all cases: glycan notation: IUPAC condensed, linker removed
# [1] = biological target: Gal6S(b1-4)Glc
# Summary of the method: (§1)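 From the Consortium for Functional Glycomics database, 3228 arrays were curated, keeping only those whose protein sequence was available. Binding is given as a within-array Z-score averaged across arrays sharing a protein sequence and across linkers. Negative Z-scores can be read as non-binding.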
# [2] = biological target: Gal6S(b1-4)Glc6S
# Summary of the method: as §1
# [3] = biological target: Gal6S(b1-4)GlcNAc
# Summary of the method: as §1
# [4] = biological target: GalNAc(a1-3)Gal
# Summary of the method: as §1
# [5] = biological target: GalNAc(a1-3)GalNAc
# Summary of the method: as §1
# [6] = biological target: GalNAc(b1-3)Gal(a1-4)Gal(b1-4)GlcNAc
# Summary of the method: as §1
# [7] = biological target: GalNAc(b1-4)GlcNAc
# Summary of the method: as §1
# [8] = biological target: Glc(a1-4)Glc
# Summary of the method: as §1
# [9] = biological target: Glc(a1-6)Glc(a1-6)Glc
# Summary of the method: as §1
# [10] = biological target: Glc(b1-4)Glc
# Summary of the method: as §1
# [11] = biological target: Glc(b1-6)Glc
# Summary of the method: as §1
# [12] = biological target: GlcA(b1-3)Gal
# Summary of the method: as §1
# [13] = biological target: GlcA(b1-6)Gal
# Summary of the method: as §1
# [14] = biological target: GlcNAc(a1-3)Gal(b1-4)GlcNAc
# Summary of the method: as §1
# [15] = biological target: GlcNAc(a1-6)Gal(b1-4)GlcNAc
# Summary of the method: as §1
# [16] = biological target: GlcNAc(b1-2)Gal(b1-3)GlcNAc
# Summary of the method: as §1
# [17] = biological target: GlcNAc(b1-2)Man(a1-3)[GlcNAc(b1-2)Man(a1-6)]Man(b1-4)GlcNAc(b1-4)GlcNAc
# Summary of the method: as §1
# [18] = biological target: GlcNAc(b1-3)Gal
# Summary of the method: as §1
# [19] = biological target: GlcNAc(b1-3)Gal(b1-3)GalNAc
# Summary of the method: as §1
# [20] = biological target: GlcNAc(b1-3)Gal(b1-4)Glc
# Summary of the method: as §1
# [21] = biological target: GlcNAc(b1-3)Gal(b1-4)GlcNAc
# Summary of the method: as §1
# [22] = biological target: GlcNAc(b1-3)Gal(b1-4)GlcNAc(b1-3)Gal(b1-4)GlcNAc
# Summary of the method: as §1
# [23] = biological target: GlcNAc(b1-3)GalNAc
# Summary of the method: as §1
# [24] = biological target: GlcNAc(b1-3)[GlcNAc(b1-4)][GlcNAc(b1-6)]GlcNAc
# Summary of the method: as §1
# [25] = biological target: GlcNAc(b1-3)[GlcNAc(b1-6)]Gal(b1-4)GlcNAc
# Summary of the method: as §1
# [26] = biological target: GlcNAc(b1-3)[GlcNAc(b1-6)]GlcNAc
# Summary of the method: as §1
# [27] = biological target: GlcNAc(b1-4)Gal(b1-4)GlcNAc
# Summary of the method: as §1
# [28] = biological target: GlcNAc(b1-4)GlcNAc(b1-4)GlcNAc
# Summary of the method: as §1
# [29] = biological target: GlcNAc(b1-4)GlcNAc(b1-4)GlcNAc(b1-4)GlcNAc(b1-4)GlcNAc
# Summary of the method: as §1
# [30] = biological target: GlcNAc(b1-4)GlcNAc(b1-4)GlcNAc(b1-4)GlcNAc(b1-4)GlcNAc(b1-4)GlcNAc
# Summary of the method: as §1
# [31] = biological target: GlcNAc(b1-4)[GlcNAc(b1-6)]GalNAc
# Summary of the method: as §1
# [32] = biological target: GlcNAc(b1-6)Gal(b1-4)GlcNAc
# Summary of the method: as §1
# [33] = biological target: GlcNAc(b1-6)GalNAc
# Summary of the method: as §1
# [34] = biological target: Kdn(a2-3)Gal(b1-3)GlcNAc
# Summary of the method: as §1
# [35] = biological target: Kdn(a2-3)Gal(b1-4)GlcNAc
# Summary of the method: as §1
# [36] = biological target: Man(a1-2)Man(a1-2)Man(a1-3)Man
# Summary of the method: as §1
# [37] = biological target: Man(a1-2)Man(a1-2)Man(a1-3)[Man(a1-2)Man(a1-3)[Man(a1-2)Man(a1-6)]Man(a1-6)]Man(b1-4)GlcNAc(b1-4)GlcNAc
# Summary of the method: as §1
# [38] = biological target: Man(a1-2)Man(a1-2)Man(a1-3)[Man(a1-2)Man(a1-6)[Man(a1-3)]Man(a1-6)]Man(b1-4)GlcNAc(b1-4)GlcNAc
# Summary of the method: as §1
# [39] = biological target: Man(a1-2)Man(a1-2)Man(a1-6)[Man(a1-3)]Man
# Summary of the method: as §1
# [40] = biological target: Man(a1-2)Man(a1-3)Man
# Summary of the method: as §1
# [41] = biological target: Man(a1-2)Man(a1-3)[Man(a1-2)Man(a1-6)]Man
# Summary of the method: as §1
# [42] = biological target: Man(a1-2)Man(a1-3)[Man(a1-3)[Man(a1-6)]Man(a1-6)]Man(b1-4)GlcNAc(b1-4)GlcNAc
# Summary of the method: as §1
# [43] = biological target: Man(a1-2)Man(a1-3)[Man(a1-6)]Man(a1-6)[Man(a1-2)Man(a1-3)]Man(b1-4)GlcNAc(b1-4)GlcNAc
# Summary of the method: as §1
# [44] = biological target: Man(a1-3)[Man(a1-6)]Man
# Summary of the method: as §1
# [45] = biological target: Man(a1-3)[Man(a1-6)]Man(a1-6)[Man(a1-3)]Man(b1-4)GlcNAc(b1-4)GlcNAc
# Summary of the method: as §1
# [46] = biological target: Man(a1-3)[Man(a1-6)]Man(b1-4)GlcNAc(b1-4)GlcNAc
# Summary of the method: as §1
# [47] = biological target: Man(b1-4)GlcNAc
# Summary of the method: as §1
# [48] = biological target: Neu5Ac(a2-3)Gal
# Summary of the method: as §1
# [49] = biological target: Neu5Ac(a2-3)Gal(b1-3)GalNAc
# Summary of the method: as §1
binder,measurement,setting,value
B1,glycan array binding signal (z-score),[1],0.086
same,glycan array binding signal (z-score),[2],0.274
same,glycan array binding signal (z-score),[3],0.128
same,glycan array binding signal (z-score),[4],0.176
same,glycan array binding signal (z-score),[5],0.205
same,glycan array binding signal (z-score),[6],-0.367
same,glycan array binding signal (z-score),[7],-0.1
same,glycan array binding signal (z-score),[8],2.65
same,glycan array binding signal (z-score),[9],1.41
same,glycan array binding signal (z-score),[10],2.14
same,glycan array binding signal (z-score),[11],2.4
same,glycan array binding signal (z-score),[12],2.23
same,glycan array binding signal (z-score),[13],-0.371
same,glycan array binding signal (z-score),[14],0.021
same,glycan array binding signal (z-score),[15],0.363
same,glycan array binding signal (z-score),[16],0.011
same,glycan array binding signal (z-score),[17],0.88
same,glycan array binding signal (z-score),[18],0.343
same,glycan array binding signal (z-score),[19],0.3
same,glycan array binding signal (z-score),[20],0.503
same,glycan array binding signal (z-score),[21],-0.367
same,glycan array binding signal (z-score),[22],-0.327
same,glycan array binding signal (z-score),[23],-0.337
same,glycan array binding signal (z-score),[24],2.53
same,glycan array binding signal (z-score),[25],0.568
same,glycan array binding signal (z-score),[26],0.685
same,glycan array binding signal (z-score),[27],-0.21
same,glycan array binding signal (z-score),[28],0.1
same,glycan array binding signal (z-score),[29],-0.291
same,glycan array binding signal (z-score),[30],-0.165
same,glycan array binding signal (z-score),[31],0.548
same,glycan array binding signal (z-score),[32],0.085
same,glycan array binding signal (z-score),[33],0.422
same,glycan array binding signal (z-score),[34],0.012
same,glycan array binding signal (z-score),[35],-0.402
same,glycan array binding signal (z-score),[36],-0.024
same,glycan array binding signal (z-score),[37],0.41
same,glycan array binding signal (z-score),[38],1.07
same,glycan array binding signal (z-score),[39],9.79
same,glycan array binding signal (z-score),[40],-0.261
same,glycan array binding signal (z-score),[41],1.78
same,glycan array binding signal (z-score),[42],-0.237
same,glycan array binding signal (z-score),[43],0.312
same,glycan array binding signal (z-score),[44],-0.475
same,glycan array binding signal (z-score),[45],-0.469
same,glycan array binding signal (z-score),[46],-0.388
same,glycan array binding signal (z-score),[47],-0.155
same,glycan array binding signal (z-score),[48],-0.522
same,glycan array binding signal (z-score),[49],-0.314
